Reference: PMC4336329 (PLoS ONE, 2015)
About 14,000 (4.5%) of roughly 310,000 compounds showed an effect of 50% or more. The effect is printed as a negative number. The list shows a part of the results.

Target: human ether-à-go-go-related gene (hERG) potassium channel (human, UniProt Q12809)
Test: primary screen, population patch clamp on CHO cells stably expressing hERG
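Note: peak tail current of the secondary pulse compared with the same well before compound.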

human ether-à-go-go-related gene (hERG) potassium channel, sequence (Q12809 whole entry, looked up): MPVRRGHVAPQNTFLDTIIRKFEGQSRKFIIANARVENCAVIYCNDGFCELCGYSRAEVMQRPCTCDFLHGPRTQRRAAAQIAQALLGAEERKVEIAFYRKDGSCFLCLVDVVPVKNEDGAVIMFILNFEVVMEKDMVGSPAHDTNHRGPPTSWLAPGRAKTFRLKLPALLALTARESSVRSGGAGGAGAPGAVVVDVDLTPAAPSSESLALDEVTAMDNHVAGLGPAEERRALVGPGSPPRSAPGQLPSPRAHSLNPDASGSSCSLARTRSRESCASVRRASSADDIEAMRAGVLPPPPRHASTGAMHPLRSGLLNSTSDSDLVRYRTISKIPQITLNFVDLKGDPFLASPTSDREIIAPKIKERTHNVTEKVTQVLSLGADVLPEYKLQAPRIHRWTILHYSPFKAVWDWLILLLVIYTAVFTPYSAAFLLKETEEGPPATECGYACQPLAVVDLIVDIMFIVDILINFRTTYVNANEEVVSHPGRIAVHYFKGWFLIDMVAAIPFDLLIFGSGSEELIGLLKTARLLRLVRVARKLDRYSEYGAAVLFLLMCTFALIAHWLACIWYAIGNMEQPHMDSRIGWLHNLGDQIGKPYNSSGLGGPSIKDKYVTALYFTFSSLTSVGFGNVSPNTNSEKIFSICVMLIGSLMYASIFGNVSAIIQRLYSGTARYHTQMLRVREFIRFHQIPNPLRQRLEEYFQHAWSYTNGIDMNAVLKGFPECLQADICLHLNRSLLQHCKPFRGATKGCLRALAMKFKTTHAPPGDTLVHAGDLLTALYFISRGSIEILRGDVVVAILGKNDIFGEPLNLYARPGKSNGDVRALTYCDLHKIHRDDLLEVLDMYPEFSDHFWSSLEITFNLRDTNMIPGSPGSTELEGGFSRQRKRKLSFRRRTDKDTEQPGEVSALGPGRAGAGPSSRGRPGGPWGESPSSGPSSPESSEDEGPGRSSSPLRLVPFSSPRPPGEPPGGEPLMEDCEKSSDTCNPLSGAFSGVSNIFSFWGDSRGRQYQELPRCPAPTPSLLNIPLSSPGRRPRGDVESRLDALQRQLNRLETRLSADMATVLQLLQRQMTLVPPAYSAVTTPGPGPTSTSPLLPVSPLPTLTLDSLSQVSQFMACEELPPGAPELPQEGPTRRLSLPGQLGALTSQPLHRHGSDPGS

Row | SMILES | hERG current change (%, negative = inhibition) at 10uM
1 | CC1=C([N+](=O)[O-])C(c2ccccc2Cl)NC(=O)N1C (centres unmarked) | 0.934%
2 | Cc1c(N=Cc2cccs2)c(=O)n(-c2ccccc2)n1C | 10.7%
3 | O=C(N/N=C1/CCS(=O)(=O)c2ccc(F)cc21)c1ccccn1 | 14.6%
4 | Nc1nc(-c2nc3ccccc3[nH]2)cs1 | 4.62%
5 | Cc1cccc2cc(CN(Cc3cccs3)C3(c4nnnn4C4CCCC4)CCCC3)c(=O)[nH]c12 | -11.3%
6 | COc1ccc(CN2CCN(C(C)C)C(CCO)C2)cc1Cn1cncn1 (centres unmarked) | 34.1%
7 | Cc1cccc(OCCOC(=O)c2c(-c3ccccc3)noc2C)c1 | 13.4%
8 | COc1ccc(S(=O)(=O)N2CCC(C(=O)NCc3ccccn3)CC2)cc1Cl | -18.2%
9 | COc1ccccc1NS(=O)(=O)c1cc(C(=O)N2CCN(C/C=C/c3ccccc3)CC2)ccc1C | -47.1%
10 | CC(=O)c1nnn(-c2ccc(Cl)cc2C#N)c1C | 7.07%
11 | O=C1NC(=O)C(=Cc2ccc(-c3ccc(F)cc3O)o2)C(=O)N1 | 16.9%
12 | COc1ccc(C(C(=O)NC2CCCC2)N(CCCO)C(=O)c2snc(C(N)=O)c2N)cc1 (centres unmarked) | -20.2%
13 | CN1CCc2cc3c(cc2[C@H]1[C@@H]1OC(=O)c2c1ccc1c2OCO1)OCO3 | 7.02%
14 | CCOC(=O)C1CCN(C(=O)C2CCCN(S(=O)(=O)c3ccc(OC)c(Cl)c3)C2)CC1 (centres unmarked) | -67.2%
15 | CCOC(=O)N1CCN(CC(O)COc2ccc(C(C)C)c(C)c2)CC1.Cl (centres unmarked) | -4.24%
16 | Cc1ccc(NC(=O)c2cc(=O)c3ccccc3o2)cc1S(=O)(=O)N1CCCCC1 | -3.72%
17 | COc1ccc(C(CNC(=O)c2cccc(S(=O)(=O)NCc3ccccc3)c2)N2CCOCC2)cc1 (centres unmarked) | -40%
18 | COC(=O)NC1CCS(=O)(=O)C1 (centres unmarked) | -11.2%
19 | CCOc1ccc(-n2c(SCC(=O)Nc3ccc4c(c3)OCCO4)nc3c(c2=O)SCC3)cc1 | -5.48%
20 | COCCSc1nnc(NS(=O)(=O)c2ccc(F)cc2)s1 | 3.84%
21 | S=c1[nH]nc(-c2ccccn2)n1/N=C/c1ccco1 | 20.3%
22 | COCCN(CCOC)Cc1c(O)ccc2c3c(c(=O)oc12)CCC3 | -18%

Row | SMILES | hERG current change (%, negative = inhibition) at 10uM
23 | CC(=O)OC(/C(O)=C(\C#N)c1nc2ccccc2[nH]1)c1ccccc1 (centres unmarked) | -2.85%
24 | Brc1ccc(OCc2nnc(SCC3CCCCC3)o2)cc1 | 11.1%
25 | CCC(CC)NCc1c[nH]c2ccccc12.O=C(O)C(=O)O | -3.29%
26 | O=C(NCc1cccnc1)c1ccc(-c2cc(Cl)ccc2Cl)o1 | -41.4%
27 | O=S(=O)(c1ccc(SCc2ccc(Cl)cc2)nc1)N1CCCC1 | -8.21%
28 | CC(C)CC(=O)Nc1ccc(-c2nc3ccccc3c(=O)[nH]2)cc1 | 26.7%
29 | O=C1C=C(NCc2ccc(Cl)cc2)CC(c2ccco2)C1 (centres unmarked) | -82.2%
30 | CCOc1ccc(/C=C2\SC(=S)N(NS(=O)(=O)c3ccc(C)cc3)C2=O)cc1OC | -12.6%
31 | CSc1ccccc1C(=O)NCCSc1ccc(C)cc1 | -15%
32 | COC(=O)COc1c(Cl)cc(C(c2c(C)[nH][nH]c2=O)c2c(C)[nH][nH]c2=O)cc1OC | 14.5%
33 | CC(C(=O)O)N1C(=O)/C(=C/c2cccn2C)SC1=S (centres unmarked) | 3.33%
34 | CCc1cccc2sc(N(CCCN3CCOCC3)C(=O)CS(=O)(=O)c3ccccc3)nc12.Cl | -7.03%
35 | COc1cc(Cl)c(CC(=O)c2c[nH]c3ccccc23)cc1OC | 15.9%
36 | CC1CC(C)CN(S(=O)(=O)c2ccc(C(=O)Nc3nnc(-c4cccs4)o3)cc2)C1 (centres unmarked) | 5%
37 | O=C(c1cccc(C(F)(F)F)c1)N1CCC(O)(CS(=O)(=O)Cc2ccccc2Cl)CC1 | -8.87%
38 | CC(=O)NC1CCN(CC(=O)Nc2cccc([N+](=O)[O-])c2)CC1 | 18.7%
39 | COc1ccc(NC(=O)CSc2nnc(Cc3cccn3C)n2-c2ccc(F)cc2)cc1OC | 0.618%
40 | COc1ccccc1C(=O)NC(=O)COC(=O)c1ccc(Cl)cc1[N+](=O)[O-] | 21.6%
41 | Cc1nc2c(C(=O)NCc3ccccc3)c[nH]n2c(=O)c1Cl | 22.6%
42 | CC(C)(C)OC(=O)N1CCC(c2c(C(=O)N3CCN(C4CCCCC4)CC3)cnn2-c2ccc(F)cc2)CC1 | -55.5%
43 | O=C1NCCN1CCNS(=O)(=O)c1ccccc1[N+](=O)[O-] | 15.8%
44 | COc1cc(O)cc2occ(-c3ccc(O)cc3)c(=O)c12 | -2.1%
